The full ranking holds about 2,900 compounds; the median of “NF-kB SEAP reporter activity, fold change vs agonist alone” is about 0.99, and the highest 2% start at about 2.6. The list shows a part of the results.
Key:
RAW-Dual [1] = experiment: NF-kB SEAP reporter activity, fold change vs agonist alone; cytotoxicity flag (confluency mask): cytotoxic (confluency <70% of control); higher = enhanced NF-kB activity
Method in brief: (§1)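 Reporter activity is given as fold change relative to agonist-alone wells. To measure it, 50 nL of library stock was pin-tooled onto RAW-Dual macrophages (50,000 cells/well, DMEM, 384-well plates), a PRR agonist followed 1 h later, and cells stayed at 37 °C, 5% CO2. Twenty hours on, supernatant was assayed for IRF (QuantiLuc luminescence) and NF-κB (QuantiBlue, 620 nm absorbance), and wells under 70% of agonist-control IncuCyte confluency in both mask sets were marked cytotoxic.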

RAW-Dual [2] = experiment: NF-kB SEAP reporter activity, fold change vs agonist alone; higher = enhanced NF-kB activity; conditions: library stock concentration (final ~1000-fold dilution): 10 mM
Method in brief: as §1

RAW-Dual [3] = experiment: NF-kB SEAP reporter activity, fold change vs agonist alone; cytotoxicity flag (confluency mask): not cytotoxic; higher = enhanced NF-kB activity
Method in brief: as §1

[4] = agonist: ODN 1826 (TLR9) 0.5 ug/mL
[5] = agonist: Pam2CSK4 (TLR2/6) 0.1 ug/mL
[6] = agonist: Pam3CSK4 (TLR2/1) 0.1 ug/mL
[7] = cytotoxicity flag (confluency mask): cytotoxic (confluency <70% of control), agonist: Imiquimod (TLR7) […]
[8] = cytotoxicity flag (confluency mask): cytotoxic (confluency <70% of control), agonist: MPLA (TLR4) […]
[9] = cytotoxicity flag (confluency mask): not cytotoxic, agonist: Imiquimod (TLR7) […]
[10] = cytotoxicity flag (confluency mask): not cytotoxic, agonist: MPLA (TLR4) […]

SMILES: Cl.OC(c1cc(C(F)(F)F)nc2c(C(F)(F)F)cccc12)C1CCCCN1 (stereo not drawn) (library stock concentration (final ~1000-fold dilution): 10 mM)
- NF-kB SEAP reporter activity (RAW-Dual [1]; agonist: LPS (TLR4) 0.1 ug/mL): 1.77
- NF-kB SEAP reporter activity (RAW-Dual [1]; [4]): 0.91
- NF-kB SEAP reporter activity (RAW-Dual [1]; [5]): 0.367
- NF-kB SEAP reporter activity (RAW-Dual [1]; [6]): 0.47

SMILES: Cl.OC(c1cc(C(F)(F)F)nc2c(C(F)(F)F)cccc12)C1CCCCN1 (stereo not drawn)
- NF-kB SEAP reporter activity (RAW-Dual [2]; [7]): 1.59
- NF-kB SEAP reporter activity (RAW-Dual [2]; [8]): 1.64

SMILES: CCC(Nc1ncnc2[nH]cnc12)c1nc2cccc(F)c2c(=O)n1-c1ccccc1 (stereo not drawn) (library stock concentration (final ~1000-fold dilution): 10 mM)
- NF-kB SEAP reporter activity (RAW-Dual [3]; agonist: LPS (TLR4) 0.1 ug/mL): 1.27
- NF-kB SEAP reporter activity (RAW-Dual [3]; [4]): 1.08
- NF-kB SEAP reporter activity (RAW-Dual [3]; [5]): 0.969
- NF-kB SEAP reporter activity (RAW-Dual [3]; [6]): 0.843

SMILES: CCC(Nc1ncnc2[nH]cnc12)c1nc2cccc(F)c2c(=O)n1-c1ccccc1 (stereo not drawn)
- NF-kB SEAP reporter activity (RAW-Dual [2]; [9]): 0.75
- NF-kB SEAP reporter activity (RAW-Dual [2]; [10]): 0.952

SMILES: O=c1c(O)c(-c2ccc(O)cc2O)oc2cc(O)cc(O)c12 (library stock concentration (final ~1000-fold dilution): 10 mM)
- NF-kB SEAP reporter activity (RAW-Dual [3]; agonist: LPS (TLR4) 0.1 ug/mL): 1.18
- NF-kB SEAP reporter activity (RAW-Dual [3]; [4]): 0.643
- NF-kB SEAP reporter activity (RAW-Dual [3]; [5]): 0.838
- NF-kB SEAP reporter activity (RAW-Dual [3]; [6]): 0.844

SMILES: O=c1c(O)c(-c2ccc(O)cc2O)oc2cc(O)cc(O)c12
- NF-kB SEAP reporter activity (RAW-Dual [2]; [9]): 0.865
- NF-kB SEAP reporter activity (RAW-Dual [2]; [10]): 1.34

SMILES: COc1ccc(C2CNC(=O)C2)cc1OC1CCCC1 (stereo not drawn)
- NF-kB SEAP reporter activity (RAW-Dual [2]; [9]): 1.43
- NF-kB SEAP reporter activity (RAW-Dual [2]; [10]): 1.15

SMILES: COc1ccc(C2CNC(=O)C2)cc1OC1CCCC1 (stereo not drawn) (library stock concentration (final ~1000-fold dilution): 10 mM)
- NF-kB SEAP reporter activity (RAW-Dual [3]; agonist: LPS (TLR4) 0.1 ug/mL): 1.54
- NF-kB SEAP reporter activity (RAW-Dual [3]; [4]): 2.26
- NF-kB SEAP reporter activity (RAW-Dual [3]; [5]): 1.27
- NF-kB SEAP reporter activity (RAW-Dual [3]; [6]): 1.45

SMILES: C=CC(=O)Nc1cc(Nc2nccc(-c3cn(C4CC4)c4ccccc34)n2)c(OC)cc1N(C)CCN(C)C (library stock concentration (final ~1000-fold dilution): 10 mM)
- NF-kB SEAP reporter activity (RAW-Dual [1]; agonist: LPS (TLR4) 0.1 ug/mL): 0.44
- NF-kB SEAP reporter activity (RAW-Dual [1]; [4]): 0.185
- NF-kB SEAP reporter activity (RAW-Dual [1]; [5]): 0.127
- NF-kB SEAP reporter activity (RAW-Dual [1]; [6]): 0.16

SMILES: C=CC(=O)Nc1cc(Nc2nccc(-c3cn(C4CC4)c4ccccc34)n2)c(OC)cc1N(C)CCN(C)C
- NF-kB SEAP reporter activity (RAW-Dual [2]; [7]): 0.36
- NF-kB SEAP reporter activity (RAW-Dual [2]; [8]): 0.368

SMILES: COc1ccc(F)c(F)c1C(=O)c1cnc(NC2CCN(S(C)(=O)=O)CC2)nc1N (library stock concentration (final ~1000-fold dilution): 10 mM)
- NF-kB SEAP reporter activity (RAW-Dual [3]; agonist: LPS (TLR4) 0.1 ug/mL): 0.194
- NF-kB SEAP reporter activity (RAW-Dual [3]; [4]): 0.985
- NF-kB SEAP reporter activity (RAW-Dual [3]; [5]): 0.0957
- NF-kB SEAP reporter activity (RAW-Dual [3]; [6]): 1.16

SMILES: COc1ccc(F)c(F)c1C(=O)c1cnc(NC2CCN(S(C)(=O)=O)CC2)nc1N
- NF-kB SEAP reporter activity (RAW-Dual [2]; [9]): 0.977
- NF-kB SEAP reporter activity (RAW-Dual [2]; [10]): 0.905

SMILES: Cc1ccc(C(C)C)cc1O (library stock concentration (final ~1000-fold dilution): 10 mM)
- NF-kB SEAP reporter activity (RAW-Dual [3]; agonist: LPS (TLR4) 0.1 ug/mL): 1.14
- NF-kB SEAP reporter activity (RAW-Dual [3]; [4]): 1.02
- NF-kB SEAP reporter activity (RAW-Dual [3]; [5]): 1.02
- NF-kB SEAP reporter activity (RAW-Dual [3]; [6]): 1.31

SMILES: Cc1ccc(C(C)C)cc1O
- NF-kB SEAP reporter activity (RAW-Dual [2]; [9]): 1.06
- NF-kB SEAP reporter activity (RAW-Dual [2]; [10]): 1.17

SMILES: Cc1cc[nH]n1
- NF-kB SEAP reporter activity (RAW-Dual [2]; [10]): 1.09

SMILES: Cc1cc[nH]n1 (library stock concentration (final ~1000-fold dilution): 10 mM)
- NF-kB SEAP reporter activity (RAW-Dual [3]; agonist: LPS (TLR4) 0.1 ug/mL): 1.15
- NF-kB SEAP reporter activity (RAW-Dual [3]; [4]): 0.951
- NF-kB SEAP reporter activity (RAW-Dual [3]; [5]): 1.12
- NF-kB SEAP reporter activity (RAW-Dual [3]; [6]): 1.04

SMILES: Cl.O=C1CN2Cc3c(ccc(Cl)c3Cl)NC2=N1 (library stock concentration (final ~1000-fold dilution): 10 mM)
- NF-kB SEAP reporter activity (RAW-Dual [3]; agonist: LPS (TLR4) 0.1 ug/mL): 0.887
- NF-kB SEAP reporter activity (RAW-Dual [3]; [4]): 1.24
- NF-kB SEAP reporter activity (RAW-Dual [3]; [5]): 0.872
- NF-kB SEAP reporter activity (RAW-Dual [3]; [6]): 1.01

SMILES: Cl.O=C1CN2Cc3c(ccc(Cl)c3Cl)NC2=N1
- NF-kB SEAP reporter activity (RAW-Dual [2]; [9]): 1.34
- NF-kB SEAP reporter activity (RAW-Dual [2]; [10]): 1.26

SMILES: COc1ccc(-c2ccc3ncc4c(c3c2)n(-c2ccc(N3CCNCC3)c(C(F)(F)F)c2)c(=O)n4C)cn1.O=C(O)/C=C\C(=O)O
- NF-kB SEAP reporter activity (RAW-Dual [2]; [7]): 0.273
- NF-kB SEAP reporter activity (RAW-Dual [2]; [8]): 0.298

SMILES: COc1ccc(-c2ccc3ncc4c(c3c2)n(-c2ccc(N3CCNCC3)c(C(F)(F)F)c2)c(=O)n4C)cn1.O=C(O)/C=C\C(=O)O (library stock concentration (final ~1000-fold dilution): 10 mM)
- NF-kB SEAP reporter activity (RAW-Dual [1]; agonist: LPS (TLR4) 0.1 ug/mL): 0.236
- NF-kB SEAP reporter activity (RAW-Dual [1]; [4]): 0.205
- NF-kB SEAP reporter activity (RAW-Dual [1]; [5]): 0.085
- NF-kB SEAP reporter activity (RAW-Dual [1]; [6]): 0.217

SMILES: COc1ncc(-c2cc(-c3ncc(CN4CC(C)OC(C)C4)o3)c3cn[nH]c3c2)cc1NS(C)(=O)=O (stereo not drawn)
- NF-kB SEAP reporter activity (RAW-Dual [2]; [7]): 0.604
- NF-kB SEAP reporter activity (RAW-Dual [2]; [8]): 2.18

SMILES: COc1ncc(-c2cc(-c3ncc(CN4CC(C)OC(C)C4)o3)c3cn[nH]c3c2)cc1NS(C)(=O)=O (stereo not drawn) (library stock concentration (final ~1000-fold dilution): 10 mM)
- NF-kB SEAP reporter activity (RAW-Dual [1]; agonist: LPS (TLR4) 0.1 ug/mL): 5.18
- NF-kB SEAP reporter activity (RAW-Dual [1]; [4]): 0.639
- NF-kB SEAP reporter activity (RAW-Dual [1]; [5]): 1.01
- NF-kB SEAP reporter activity (RAW-Dual [1]; [6]): 1.39

SMILES: Cc1cc(-c2ccccc2)nnc1NCCN1CCOCC1.Cl.Cl
- NF-kB SEAP reporter activity (RAW-Dual [2]; [9]): 1.35
- NF-kB SEAP reporter activity (RAW-Dual [2]; [10]): 1.27

SMILES: Cc1cc(-c2ccccc2)nnc1NCCN1CCOCC1.Cl.Cl (library stock concentration (final ~1000-fold dilution): 10 mM)
- NF-kB SEAP reporter activity (RAW-Dual [3]; agonist: LPS (TLR4) 0.1 ug/mL): 1.35
- NF-kB SEAP reporter activity (RAW-Dual [3]; [4]): 1.33
- NF-kB SEAP reporter activity (RAW-Dual [3]; [5]): 1.02
- NF-kB SEAP reporter activity (RAW-Dual [3]; [6]): 1.19

SMILES: CC(C)=CCC[C@@H](C)CCO
- NF-kB SEAP reporter activity (RAW-Dual [2]; [9]): 0.998
- NF-kB SEAP reporter activity (RAW-Dual [2]; [10]): 1.12

SMILES: CC(C)=CCC[C@@H](C)CCO (library stock concentration (final ~1000-fold dilution): 10 mM)
- NF-kB SEAP reporter activity (RAW-Dual [3]; agonist: LPS (TLR4) 0.1 ug/mL): 1.1
- NF-kB SEAP reporter activity (RAW-Dual [3]; [4]): 1.14
- NF-kB SEAP reporter activity (RAW-Dual [3]; [5]): 1.11
- NF-kB SEAP reporter activity (RAW-Dual [3]; [6]): 1.1

SMILES: COc1ccc(OC)c(C2C(C#N)=C(N)Oc3[nH]nc(-c4ccc5ccccc5c4)c32)c1 (stereo not drawn)
- NF-kB SEAP reporter activity (RAW-Dual [2]; [9]): 0.966
- NF-kB SEAP reporter activity (RAW-Dual [2]; [10]): 1.39

SMILES: COc1ccc(OC)c(C2C(C#N)=C(N)Oc3[nH]nc(-c4ccc5ccccc5c4)c32)c1 (stereo not drawn) (library stock concentration (final ~1000-fold dilution): 10 mM)
- NF-kB SEAP reporter activity (RAW-Dual [3]; agonist: LPS (TLR4) 0.1 ug/mL): 1.12
- NF-kB SEAP reporter activity (RAW-Dual [3]; [4]): 0.869
- NF-kB SEAP reporter activity (RAW-Dual [3]; [5]): 0.75
- NF-kB SEAP reporter activity (RAW-Dual [3]; [6]): 0.707

Reference: the supplement of paper PMC10037445
